Measurements from PMC4336329 (PLoS ONE, 2015).
The whole screen tested about 310,000 compounds, of which about 2,200 (0.71%) showed an effect of 50% or more. The effect is printed as a negative number. The list shows a part of the results.

target: human ether-à-go-go-related gene (hERG) potassium channel (human, UniProt Q12809); assay: primary screen, population patch clamp on CHO cells stably expressing hERG
Sequence (Q12809 whole entry, looked up): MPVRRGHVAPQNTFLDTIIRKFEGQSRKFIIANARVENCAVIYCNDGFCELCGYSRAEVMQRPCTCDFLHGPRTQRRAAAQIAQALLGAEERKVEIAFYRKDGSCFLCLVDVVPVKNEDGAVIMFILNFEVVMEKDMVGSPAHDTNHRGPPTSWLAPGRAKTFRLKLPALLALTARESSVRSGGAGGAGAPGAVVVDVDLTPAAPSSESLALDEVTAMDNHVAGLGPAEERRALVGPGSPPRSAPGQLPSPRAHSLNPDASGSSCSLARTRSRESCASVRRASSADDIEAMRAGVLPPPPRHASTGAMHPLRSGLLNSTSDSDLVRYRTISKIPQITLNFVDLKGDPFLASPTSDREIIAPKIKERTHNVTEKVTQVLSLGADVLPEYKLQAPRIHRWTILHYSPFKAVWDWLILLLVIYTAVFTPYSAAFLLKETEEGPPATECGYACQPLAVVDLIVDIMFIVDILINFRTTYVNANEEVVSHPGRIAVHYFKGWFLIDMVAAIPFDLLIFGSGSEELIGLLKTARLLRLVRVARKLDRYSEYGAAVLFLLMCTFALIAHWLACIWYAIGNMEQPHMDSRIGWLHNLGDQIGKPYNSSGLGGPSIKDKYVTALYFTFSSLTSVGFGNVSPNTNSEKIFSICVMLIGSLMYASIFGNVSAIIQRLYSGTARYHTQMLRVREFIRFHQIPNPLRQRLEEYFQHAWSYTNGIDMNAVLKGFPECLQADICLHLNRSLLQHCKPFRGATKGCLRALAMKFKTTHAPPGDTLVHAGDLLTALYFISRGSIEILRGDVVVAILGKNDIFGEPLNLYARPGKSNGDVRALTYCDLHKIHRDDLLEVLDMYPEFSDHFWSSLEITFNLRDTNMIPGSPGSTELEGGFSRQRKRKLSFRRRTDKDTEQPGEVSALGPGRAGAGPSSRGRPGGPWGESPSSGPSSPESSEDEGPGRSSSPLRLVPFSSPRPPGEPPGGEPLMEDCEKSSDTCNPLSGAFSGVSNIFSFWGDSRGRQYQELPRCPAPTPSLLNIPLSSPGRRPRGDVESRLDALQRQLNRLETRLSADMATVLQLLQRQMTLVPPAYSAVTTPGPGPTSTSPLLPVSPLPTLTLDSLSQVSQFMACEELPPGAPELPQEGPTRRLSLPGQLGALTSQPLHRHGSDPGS

Compound | hERG current change (%, negative = inhibition) at 1uM [%]
CN(C)C(=O)N1CCN(C(=O)N2CCOCC2)CC1 | 17.4
CN1C(=O)C(=Cc2ccccc2Oc2ccc(Cl)c(F)c2)C(=O)N(C)C1=O | 8.08
Cc1cccc(CN2CCN(CCCc3ccccc3)CC2)c1.O=C(O)C(=O)O | -9.66
COc1ccc(OC)c(NC(=O)CCC(=O)Nc2nnc(C(C)C)s2)c1 | 18.7
COc1cc(/C=C2\Oc3cc(O)ccc3C2=O)ccc1O | 11.8
CC(=O)Cc1nsc(NC(=O)c2ccc(-c3ccc(F)cc3)o2)n1 | 3.77
O=C(O)Cc1cn(Cc2ccc(F)cc2)c2ccccc12 | 12.2
CC(C)[C@H](NC(=O)c1ccccc1)C(=O)OCC(=O)c1ccc(S(=O)(=O)N2CCCCC2)cc1 | -4.45
FC(F)(F)c1cc(N2CCOCC2)nc(-c2ccccc2)n1 | 5.48
CC(NC(=O)c1ccc(CS(=O)(=O)c2cccc(C(F)(F)F)c2)o1)c1ccc2c(c1)OCCO2 (stereo not shown) | 10.1
CCCC(=O)Nc1ccc(Cl)c(NC(=O)c2ccc([N+](=O)[O-])cc2Cl)c1 | -1.77
Cc1ccc(NC(=O)NNC(=O)C2CC(c3cccs3)=NO2)cc1 (stereo not shown) | 15.6
CC(C)(C)c1ccc(C(=O)NCCC(=O)NCc2ccco2)cc1 | -11.4
Cc1ccc(S(=O)(=O)N2CCN(C(=O)CN3C(=O)NC4(CCCC4)C3=O)CC2)c(C)c1 | 4.99
CCOC(=O)c1ccc(-n2c(N)c(C(=O)NCc3ccco3)sc2=S)cc1 | 0.902
COc1cc(OC)cc(-c2nnc(NC(=O)Cc3ccc(F)cc3)o2)c1 | 18.6
O=[N+]([O-])c1cc(/C=N/OCc2c(Cl)cccc2Cl)ccc1N1CCOCC1 | 0.632
Cc1ccc(S(=O)(=O)NC(=O)Nc2ccc(Cl)cn2)cc1 | 5.68
CCOC(=O)c1[nH]c2ccccc2c1NC(=O)CCN1CCN(C(=O)OCC)CC1 | 4.67
CCOC(=O)C1(Cc2ccccc2C)CCCN(C(=O)CCc2c(C)noc2C)C1 (stereo not shown) | -4.16
O=C(Nc1nc2ccc(SC(F)F)cc2s1)c1ccc2c(c1)S(=O)(=O)c1ccccc1C2=O | -4
O=C(c1ccc([N+](=O)[O-])cc1)N1CCSC1c1cccc(Cl)c1 (stereo not shown) | -14.7

Compound | hERG current change (%, negative = inhibition) at 1uM [%]
Cn1ncc2c(NCc3cccc(C(F)(F)F)c3)c(C(=O)O)cnc21 | 18.5
CCCc1nnc(NC(=O)OCC)s1 | 13.3
CN1C(=O)NC(=O)C(C)(C2=CCCCC2)C1=O (stereo not shown) | 13.8
CC(=O)N1CCC(C(=O)c2ccc(Cl)cc2)CC1 | 10.8
COc1ccc(/C=C/C2=NNC(=O)CC2)cc1 | 9.55
CC(=O)Oc1ccc(-c2cc3ccc(OC(C)=O)cc3oc2=O)cc1 | 9.98
C/C(=N\NC(=O)COc1ccccc1-c1ccccc1)c1ccccn1 | 5.52
O=C(NCC(=O)N1CCN(S(=O)(=O)c2ccccc2)CC1)c1ccc(Br)o1 | 4.64
O=c1cc(N2CCc3ccccc3C2)[nH]c(=O)n1-c1ccc(Br)cc1 | -3.08
COC(=O)c1ccc(NC(=O)C2CCN(C(=O)c3cc(OC)c(OC)c(OC)c3)CC2)cc1 | 7.14
CCC1Oc2ccccc2C(=O)N(CC(=O)c2ccc3c(c2)OCCO3)C1=O (stereo not shown) | 15.6
O=C1C2C3CCCC3=C3CCCC3C2C(=O)N1c1ccccc1 (stereo not shown) | 2.04
CC(=O)c1ccc(NC(=O)COC(=O)c2c[nH]c3ccccc23)cc1 | 14.4
C=CCNC(=O)COC(=O)c1ccccc1C(=O)N(C)C1CCCCC1 | 9.53
CCC(C)NCCCCOc1ccc(C)cc1[N+](=O)[O-].O=C(O)C(=O)O (stereo not shown) | 3.62
COc1cccc(/C=N/NC(=O)CSc2nnc(C)n2-c2ccccc2)c1O | 2.78
CSc1nc(O)c(C(c2ccc(O)cc2)c2c(O)nc(SC)[nH]c2=O)c(=O)[nH]1 | 13.3
COC(=O)c1ccc(C(=O)OC)c(NC(=O)CN2CCCCC2)c1 | 12.7
COc1ccc(C2CNC(=O)C2)cc1OC1CCCC1 (stereo not shown) | 1.74
CCc1nnc(NC(=O)CN2CCN(Cc3ccccc3Cl)CC2)s1 | 12.1
C/C(Cn1cnc([N+](=O)[O-])n1)=N\NC(=O)c1ccc(Br)cc1 | -9.12
CCn1c(SCc2ccc(C#N)cc2)nnc1-c1ccc(S(=O)(=O)N2CCCCC2)cc1 | -26.7

Compound | hERG current change (%, negative = inhibition) at 1uM [%]
COc1ccc(NC(=O)CSc2nc(O)cc(=O)n2-c2ccccc2OC)cc1 | 17
O=C(Nc1ccc(C(=O)NCCCN2CCCCC2)cc1)C1=CSCCO1 | 12.6
CCN(CC)S(=O)(=O)c1cccc(-c2nnc(SCCOc3ccccc3C)o2)c1 | 6.48
C=CCNC(=O)NC(=O)COC(=O)CNS(=O)(=O)c1ccc(F)c(F)c1F | 9.03
O=C(O)CC/C(=N/NC(=O)CNC(=O)Cc1ccc(Cl)cc1)c1ccccc1 | 11.8
CCN(CC)CCCN(C(=O)c1ccccc1C)c1nc(-c2ccc(OC)cc2)cs1 | 7
C[C@H](NC(=O)CCC1CCC(=O)N1)c1ccccc1 (stereo partly shown) | 15
CC(C)Oc1cccc(C(=O)C2CCCN(C(=O)c3cncs3)C2)c1 (stereo not shown) | 4.28
Cc1ccc(C(C)C)c(OCC(=O)Nn2c(=O)[nH]c3ccccc3c2=O)c1 | -1.61
Cc1ccc(C)c(OCc2cc(C(=O)N3CCN(c4cnccn4)CC3)no2)c1 | -23.9
Cc1ccc2c(c1)cc(CN(Cc1ccco1)S(=O)(=O)c1ccccc1)c1nnnn12 | 4.69
CN(C(=O)CC1C(=O)NCCN1Cc1ccc2ccccc2c1)C1CCOCC1 (stereo not shown) | 12.1
Cc1ccccc1NC(=O)NC1CCCc2ccccc21 (stereo not shown) | 12
COc1ccc(OCC(=O)O/N=C(\N)Cc2cccs2)cc1 | 8.42
N=c1c(C(=O)NCC2CCCO2)cc2c(=O)n3ccccc3nc2n1Cc1ccco1 (stereo not shown) | -83.1
Oc1ccc(/C=N/n2c(-c3ccccc3)n[nH]c2=S)cc1 | 18
COc1ccc([C@H]2CC(=O)C=C(c3ccc(C)cc3)C2)cc1OC | 3.84
CCCCn1c(SCC(=O)Nc2ccccc2C(F)(F)F)nc2ccsc2c1=O | 7.44
Clc1cccc(Cl)c1C[n+]1ccc2ccccc2c1.[Br-] | 14
CC(C)(C)OC(=O)N1CCC[C@H]1c1nnc(SCc2ccc(Cl)cc2)o1 | 8.82
COc1ccc(/C=N\NC(=O)c2cccc([N+](=O)[O-])c2)cc1Cn1cc([N+](=O)[O-])cn1 | 8.51
COCCNC(=O)c1onc(CSc2ccc(C(C)C)cc2)c1C(=O)O | 7.61

Compound | hERG current change (%, negative = inhibition) at 1uM [%]
C=CCn1c(SCC(=O)Nc2cccc(C)c2)nnc1-c1cnccn1 | -3.12
CCn1c(O)c(/C=N/NC(=O)c2ccccc2)c(=O)[nH]c1=S | 14.3
NC(=O)Cn1nnc(-c2ccc(C(F)(F)F)cc2)n1 | 0.549
COCCN(C(=O)Nc1ccccc1)C(C)c1cccnc1 (stereo not shown) | 15.8
N#CC1(NC(=O)CSc2nnc(C3CC3)n2C2CC2)CCCCC1 | 5.6
COc1ccc(OC)c(-c2csc(N(C)C(=O)c3ccco3)n2)c1 | 10.1
Cc1ccc2[nH]c(C(=O)N/N=C/c3ccccc3C(=O)O)c(-c3ccccc3)c2c1 | 8.39
Cc1nn(CCOc2cccc(Cl)c2)c(C)c1[N+](=O)[O-] | 14.4
CC[C@H](NC(=O)c1c(C)c(-c2ccccc2)nc2ccccc12)c1ccccc1 | 18.2
CC(=O)NCCc1c(C)n(Cc2ccccc2)c2ccccc12 | 5.79
CN(C)S(=O)(=O)Nc1ccc(NS(=O)(=O)N(C)C)c(S(=O)(=O)c2ccccc2)c1 | 10.2
N=c1c(S(=O)(=O)c2ccc(Cl)cc2)cc2c(=O)n3ccccc3nc2n1CCc1ccccc1 | 13.2
COc1ccc(CNC(=O)CCCC2=NS(=O)(=O)c3ccccc3N2)cc1 | 15.4
COC(=O)CNC(=O)c1ccc(F)cc1 | 15.2
COc1cc(NC(=O)CCCc2c[nH]c3ccccc23)cc(OC)c1 | 14.7
O=C(Nc1ccc(-c2csc(Nc3cccc(C(F)(F)F)c3)n2)cc1)c1ccccc1 | 18.6
CCCOC(=O)CC1C(=O)NCCN1Cc1ccc(F)cc1 (stereo not shown) | 6.19
COc1ccc(-n2cnc3cc(C(=O)N4CCOCC4)ccc32)cc1 | 3.06
COC(=O)c1ccc(CSc2nnc(N)s2)cc1 | 2.14
Cc1cc(CCN2CCC(=O)NC2=S)ccc1OC(C)C | 0.0871
Cc1cnc(C(=O)OCc2ccc(C#N)cc2)cn1 | 9.82
Cc1cc(Br)cc(C)c1NC(=O)c1ccc(C#N)cc1F | -8.11
